# Experimental data from PubChem BioAssay AID488969 (Vanderbilt High Throughput Screening Facility, 2010).
# Over roughly 110,000 compounds, “z-score” has its median near -0.1; the highest 2% begin near 2. This is one part of the list. Activity calls are given as the source filed them.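 How the source made its calls: active means z-score in the third read window above 3 or below -3; inactive means the rest.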
# Molecular target: Metabotropic glutamate receptor 8 (Rattus norvegicus) (UniProt P70579)
# Test: rat mGluR8 modulators via GIRK flux, primary screen, cell-based, thallium flux, HTS (AID 488969)
# Conditions: HEK293 rat mGluR8, GIRK (G protein-gated inwardly rectifying potassium channel) thallium flux, FluoZin2; at 10 µM; stronger effect = higher value; submaximal glutamate (EC20) added with thallium
# Sequence of UniProt P70579 (P70579 whole entry, looked up): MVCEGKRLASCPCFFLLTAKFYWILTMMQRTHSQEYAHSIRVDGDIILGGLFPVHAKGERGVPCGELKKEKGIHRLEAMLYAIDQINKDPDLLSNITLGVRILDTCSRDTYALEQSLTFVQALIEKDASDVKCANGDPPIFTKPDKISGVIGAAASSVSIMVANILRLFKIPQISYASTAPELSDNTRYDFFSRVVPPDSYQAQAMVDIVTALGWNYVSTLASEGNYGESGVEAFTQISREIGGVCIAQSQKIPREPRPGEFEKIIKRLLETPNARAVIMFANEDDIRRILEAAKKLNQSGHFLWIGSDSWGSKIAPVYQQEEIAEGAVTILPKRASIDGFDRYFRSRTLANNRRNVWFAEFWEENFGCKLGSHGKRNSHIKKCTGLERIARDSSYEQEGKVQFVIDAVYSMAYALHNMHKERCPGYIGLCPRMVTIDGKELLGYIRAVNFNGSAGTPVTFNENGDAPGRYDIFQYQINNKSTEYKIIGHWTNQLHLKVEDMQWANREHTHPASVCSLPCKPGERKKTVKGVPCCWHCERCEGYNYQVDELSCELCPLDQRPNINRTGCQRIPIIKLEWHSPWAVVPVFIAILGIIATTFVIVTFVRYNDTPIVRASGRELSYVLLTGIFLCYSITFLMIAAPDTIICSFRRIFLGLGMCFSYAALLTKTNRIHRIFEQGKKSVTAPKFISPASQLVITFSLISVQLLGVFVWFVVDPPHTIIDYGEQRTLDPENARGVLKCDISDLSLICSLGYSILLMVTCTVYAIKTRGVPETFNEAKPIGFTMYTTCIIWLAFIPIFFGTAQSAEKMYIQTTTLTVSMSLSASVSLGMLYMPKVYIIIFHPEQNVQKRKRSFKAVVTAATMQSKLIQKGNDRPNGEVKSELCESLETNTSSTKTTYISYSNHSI
row,SMILES,z-score
1,NC(=S)Nn1c(-c2ccccc2)nc2ccccc2c1=O,0.00478
2,COc1ccc(-c2cc(C(F)(F)F)n3nc(N)nc3n2)cc1,-0.178
3,O=C(NCCc1ccccc1)C1CCCN(S(=O)(=O)c2cccc3nonc23)C1 (stereo unspecified),0.0776
4,O=C(NCc1cccnc1)c1cccc(S(=O)(=O)N2CCOCC2)c1,-0.15
5,CN(C)c1cccc(N=C2C=C(N3CCOCC3)CC(C)(C)C2)c1,2.3
6,O=C(NCC1COc2ccccc2O1)c1cn(Cc2ccc(F)cc2)nn1 (stereo unspecified),-0.866
7,Cc1ccc(S(=O)(=O)N2CCCCC2)cc1NC(=O)c1ccc2c(=O)n3c(nc2c1)CCCCC3,-0.354
8,Cc1ccccc1S(=O)(=O)Nc1nc2ccccc2nc1N1CCc2ccccc2C1,-0.128
9,CCOC(=O)c1ccc(Cn2c(-c3ccccc3)nnc2-c2ccccc2)o1,-1.13
10,O=C(c1ccccc1)c1coc2ccc(O)c(CN3CCOCC3)c12,1.96
11,CSc1ccccc1-c1nnc(-c2ccc(Cl)cc2)o1,0.109
12,O=C(CCN1C(=O)c2ccccc2C1=O)Nc1ccc(-c2nc3ccccc3o2)cc1,-0.0516
13,CCn1ncc(/C=N/NS(=O)(=O)c2ccc(Cl)cc2)c1C,-0.0325
14,OCCN(Cc1ccccc1)Cc1ccccc1F,-0.279
15,CCN(CC)S(=O)(=O)c1ccc(N2CCOCC2)c(NC(=O)C(=O)c2c(-c3ccccc3)cc3ccccn23)c1,-0.54
16,Cc1ccc(CNC(=O)CCCNC(=O)c2ccc(Cl)cc2)n1C,-0.357

row,SMILES,z-score
1,C/C(Nc1cccc(F)c1)=C(/C#N)C(N)=O,0.931
2,CC1=CC(=O)OC1Cc1ccncc1 (stereo unspecified),active: 14.2
3,COc1ccc2[nH]c(=O)c(CN(C)C(=O)c3ccncc3)cc2c1,-0.15
4,COc1ccccc1NC(=O)C1=C(C)Nc2nnnn2C1c1ccccc1OC (stereo unspecified),-0.0172
5,CC(C)CN(C#N)c1nc(N2CCOCC2)nc(N2CCOCC2)n1,-0.256
6,CC(=O)c1ccc2c3c(cccc13)CC2,0.21
7,O=C(O)CSc1nc2ccccc2c(=O)[nH]1,0.114
8,C=CCN(c1ccccc1)S(=O)(=O)c1ccc2c(c1)oc(=O)n2C,-0.132
9,CCOC(=O)CC(=O)CSc1ccc2nnc(-c3ccc(C)cc3)n2n1,-1.86
10,O=C1Nc2cc(Cl)c(Cl)cc2N(O)N1c1ccc(Cl)cc1,-0.281
11,NC(=O)C1CCN(C(=S)c2cccs2)CC1,0.00443
12,COC(=O)c1cn(NC(=O)CCC2CCCC2)c(=O)c2ccccc12,0.868
13,CCC1CCCCN1C(=O)N[C@@H](Cc1ccccc1)C(=O)O (stereo partly specified),0.552
14,Cc1ccc2nc(Nc3nc(CSc4nc5ccccc5s4)cc(=O)[nH]3)nc(C)c2c1,0.227
15,CCN(Cc1ccccc1)c1ccc(/C=N/NS(=O)(=O)c2ccc(C)c([N+](=O)[O-])c2)cc1,-0.347
